Results as given in paper PMC4336329 (PLoS ONE, 2015).
Out of some 310,000 compounds screened, about 2,200 (0.71%) showed an effect of 50% or more. The effect is printed as a negative number. This is one part of the list.

Each molecule was assayed against human ether-à-go-go-related gene (hERG) potassium channel (human, UniProt Q12809) (assay: primary screen, population patch clamp on CHO cells stably expressing hERG).
Chain of human ether-à-go-go-related gene (hERG) potassium channel (Q12809 whole entry, looked up): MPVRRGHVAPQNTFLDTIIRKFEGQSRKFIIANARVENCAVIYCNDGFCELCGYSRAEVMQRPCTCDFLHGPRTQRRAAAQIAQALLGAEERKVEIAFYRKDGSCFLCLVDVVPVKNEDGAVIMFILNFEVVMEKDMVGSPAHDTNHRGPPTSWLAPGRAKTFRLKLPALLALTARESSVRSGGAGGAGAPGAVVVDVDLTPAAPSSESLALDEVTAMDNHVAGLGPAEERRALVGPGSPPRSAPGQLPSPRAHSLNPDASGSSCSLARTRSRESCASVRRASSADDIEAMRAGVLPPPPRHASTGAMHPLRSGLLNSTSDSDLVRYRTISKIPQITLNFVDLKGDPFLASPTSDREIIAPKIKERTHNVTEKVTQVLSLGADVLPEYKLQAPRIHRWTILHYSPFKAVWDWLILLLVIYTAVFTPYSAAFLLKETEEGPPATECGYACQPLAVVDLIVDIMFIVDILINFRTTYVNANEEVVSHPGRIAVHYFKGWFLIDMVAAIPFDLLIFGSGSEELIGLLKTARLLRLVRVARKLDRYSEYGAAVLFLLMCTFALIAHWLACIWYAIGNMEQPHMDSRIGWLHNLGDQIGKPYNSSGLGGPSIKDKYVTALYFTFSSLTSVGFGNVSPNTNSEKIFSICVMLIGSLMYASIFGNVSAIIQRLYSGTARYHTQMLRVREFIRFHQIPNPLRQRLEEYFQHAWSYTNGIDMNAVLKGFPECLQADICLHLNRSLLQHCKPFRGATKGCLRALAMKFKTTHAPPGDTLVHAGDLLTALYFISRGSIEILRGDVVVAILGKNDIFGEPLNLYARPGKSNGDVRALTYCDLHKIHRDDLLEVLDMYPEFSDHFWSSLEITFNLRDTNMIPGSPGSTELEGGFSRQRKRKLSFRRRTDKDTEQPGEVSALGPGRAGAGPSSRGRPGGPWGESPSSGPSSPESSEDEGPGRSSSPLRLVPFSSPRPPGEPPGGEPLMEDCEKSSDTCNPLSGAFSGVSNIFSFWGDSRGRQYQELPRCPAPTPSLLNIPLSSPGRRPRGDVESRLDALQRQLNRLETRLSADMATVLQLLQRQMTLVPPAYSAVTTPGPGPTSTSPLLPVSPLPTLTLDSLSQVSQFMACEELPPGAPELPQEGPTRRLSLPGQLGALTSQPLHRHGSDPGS
In the case of `CCCCNC(=O)CSc1nc2ccsc2c(=O)n1C1CCN(C(=O)OCC)CC1`, the “hERG current change (%, negative = inhibition) at 1uM” value is reported as -15.3%. For `Cc1ccc(NC(=O)Cn2c(O)c(N=NS(=O)(=O)c3ccc(C)cc3)c3ccccc32)cc1`, the “hERG current change (%, negative = inhibition) at 1uM” value was 9.8%. With `CCOC(=O)c1nnc2cc(C)nn2c1C` the “hERG current change (%, negative = inhibition) at 1uM” value was 9.6%. `O=c1oc2c(CN3CCOCC3)c(O)ccc2c2ccccc12` was tested, and the “hERG current change (%, negative = inhibition) at 1uM” value was 1.67%. In the case of `Cc1ccc(NC(=O)CCC(=O)N/N=C/c2ccc(O)cc2O)cc1`, the “hERG current change (%, negative = inhibition) at 1uM” value is reported as 15.7%. With `C/C(=N\N(c1ccccc1)c1ccccc1)c1ccc(N)cc1` the “hERG current change (%, negative = inhibition) at 1uM” value was 12.3%. For `COc1ccccc1N1CCN(c2ccc3cc(S(=O)(=O)N4CCCCC4)ccc3n2)CC1`, the “hERG current change (%, negative = inhibition) at 1uM” value was 11.9%. With `CCOc1ccc2[nH]c3nc(SCC(=O)OC(C)C)nnc3c2c1` the “hERG current change (%, negative = inhibition) at 1uM” value was 14.6%. For `Cc1ccc(NC(=O)c2nc[nH]c2C(=O)N[C@@H](C)c2ccccc2)cc1`, the “hERG current change (%, negative = inhibition) at 1uM” value was 19.6%. For `O=C(c1ccc(CNS(=O)(=O)c2ccc(Br)cc2)cc1)N1CCC2(CC1)OCCO2`, the “hERG current change (%, negative = inhibition) at 1uM” value was 2.65%. For `O=C(CN1C(=O)CSc2ccccc21)NCCC1=CCCCC1`, the “hERG current change (%, negative = inhibition) at 1uM” value was 0.351%. For `CC(Sc1nc2ccccc2s1)C(=O)N(C)Cc1ccccc1` (stereo not shown), the “hERG current change (%, negative = inhibition) at 1uM” value was 8.28%. For `O=C(CSc1nncn1-c1ccccn1)Nc1cccc(Cl)c1`, the “hERG current change (%, negative = inhibition) at 1uM” value was -2.19%. For `COc1ccc(NC(=O)CCN2C(=O)c3ccncc3C2=O)cc1OC`, the “hERG current change (%, negative = inhibition) at 1uM” value was 1.46%. With `COc1cc(CSC)nc(-c2ccccc2)n1` the “hERG current change (%, negative = inhibition) at 1uM” value was 12.2%. With `CC(C)(C)c1cc(Cl)c(O)c(NC(=S)NC(=O)c2cccnc2)c1` the “hERG current change (%, negative = inhibition) at 1uM” value was 4.44%. In the case of `COc1ccccc1/C=N/NC(=O)CSc1ccc2ccccc2n1`, the “hERG current change (%, negative = inhibition) at 1uM” value is reported as 16.6%. In the case of `CCOC(=O)C1=C(COC(=O)C(C)(C)Oc2ccc(Cl)cc2)NC(=O)NC1C` (stereo not shown), the “hERG current change (%, negative = inhibition) at 1uM” value is reported as 5.59%. In the case of `Cc1nc2scc(-c3ccc(C(C)(C)C)cc3)c2c(=O)n1N`, the “hERG current change (%, negative = inhibition) at 1uM” value is reported as 7.51%. `CC1(C)OC(=O)N(c2cccnc2)C1(C)O` (stereo not shown) was tested, and the “hERG current change (%, negative = inhibition) at 1uM” value was 15.8%. In the case of `Cc1c(C(=O)N2CCCCC2C)sc2ncnc(N3CCc4ccccc4C3)c12` (stereo not shown), the “hERG current change (%, negative = inhibition) at 1uM” value is reported as 3.53%. `O=C(NC1CC1)C1CCN(C2CCN(C(=O)c3ccc(C(F)(F)F)cc3)CC2)CC1` was tested, and the “hERG current change (%, negative = inhibition) at 1uM” value was 0.78%. For `N#Cc1nc(-c2ccccc2)oc1N1CCN(C(=O)c2ccco2)CC1`, the “hERG current change (%, negative = inhibition) at 1uM” value was -34.7%. In the case of `CCc1c(O)nc(SCC(=O)Nc2ccccc2OC)[nH]c1=O`, the “hERG current change (%, negative = inhibition) at 1uM” value is reported as 8.07%. In the case of `CC(NC(=O)c1ccc(CS(C)(=O)=O)cc1)c1cccc2ccccc12` (stereo not shown), the “hERG current change (%, negative = inhibition) at 1uM” value is reported as 6.06%. For `O=C(CNC(=O)c1ccc(Cl)cc1)Nc1ccccc1C(F)(F)F`, the “hERG current change (%, negative = inhibition) at 1uM” value was 9.72%. With `COc1ccc(-c2noc(N3CCCC(C(=O)Nc4cc(F)ccc4F)C3)n2)cc1` (stereo not shown) the “hERG current change (%, negative = inhibition) at 1uM” value was 5.89%. `CCN(c1ccccc1)S(=O)(=O)c1ccc(Cl)c(NC(=O)Nc2ccc(Cl)cc2C#N)c1` was tested, and the “hERG current change (%, negative = inhibition) at 1uM” value was 4.6%. In the case of `COc1ccccc1C1=NOC(Cn2c(NCC3CCCO3)nc3c2c(=O)n(C)c(=O)n3C)C1` (stereo not shown), the “hERG current change (%, negative = inhibition) at 1uM” value is reported as 10.9%. `Cc1ccc(S(=O)(=O)N2CCC(C(=O)Nc3ccccc3N3CCCC3)CC2)cc1C` was tested, and the “hERG current change (%, negative = inhibition) at 1uM” value was 13.1%. In the case of `COc1ccc(N2C(=O)C3CCCN3C2c2ccccc2)cc1` (stereo not shown), the “hERG current change (%, negative = inhibition) at 1uM” value is reported as 6.98%. `O=C(C(Sc1ccccc1)c1ccc(Br)cc1)N1CCOCC1` (stereo not shown) was tested, and the “hERG current change (%, negative = inhibition) at 1uM” value was 4.97%. With `CC(C)OC(=O)CSc1nnc(-c2ccccn2)n1N` the “hERG current change (%, negative = inhibition) at 1uM” value was 14.9%. `O=C(Nc1ccccc1-c1nnn(CC(=O)N2CCCc3ccccc32)n1)c1ccco1` was tested, and the “hERG current change (%, negative = inhibition) at 1uM” value was -2.43%. With `CC(C)[C@H](NC(=O)c1cc2cc(Cl)ccc2n1C)C(=O)N[C@@H](C(=O)O)c1ccccc1` the “hERG current change (%, negative = inhibition) at 1uM” value was 9.95%. For `O=C(CCCCCCN1C(=O)c2ccccc2C1=O)N1CCC(c2ccccc2)C1` (stereo not shown), the “hERG current change (%, negative = inhibition) at 1uM” value was -0.85%. In the case of `S=c1[nH]cc(-c2ccc(Cl)cc2)n1-c1ccccc1`, the “hERG current change (%, negative = inhibition) at 1uM” value is reported as 0.551%. In the case of `NNS(=O)(=O)c1ccc(N2CCCC2=O)c([N+](=O)[O-])c1`, the “hERG current change (%, negative = inhibition) at 1uM” value is reported as 14.9%. In the case of `CCOC(=O)C1=CCC2c3c(c4ccccc4n3C)C(=O)C1N2C(=O)OC(C)(C)C` (stereo not shown), the “hERG current change (%, negative = inhibition) at 1uM” value is reported as 15.9%. `CCn1c(=O)c2c(nc3n2CCCN3CCc2ccccc2)n(C)c1=O` was tested, and the “hERG current change (%, negative = inhibition) at 1uM” value was 4.37%. `O=S(=O)(CCc1nc2ccccc2s1)c1ccc(Cl)cc1` was tested, and the “hERG current change (%, negative = inhibition) at 1uM” value was 2.13%. With `COc1ccc2c(=O)c3ccccc3oc2c1` the “hERG current change (%, negative = inhibition) at 1uM” value was 5.86%. `CCn1c(=O)c2cc(S(=O)(=O)NC3CCCCC3)ccc2n(CC)c1=O` was tested, and the “hERG current change (%, negative = inhibition) at 1uM” value was 0.676%.
